Measurements from PubChem BioAssay AID1508624 (National Center for Advancing Translational Sciences (NCATS), 2021).
Hit rate of the full screen: of about 48,000 compounds, about 120 (0.25%) were called active. Inconclusive results (about 4%) are left out. Calls follow the shape of the dose curve; as a rule, active = well fitted activation curve with a large enough effect; inconclusive = small, poorly fitted or top-dose-only effect, or another doubt; inactive = no such curve, though single readings can be large or run the other way. The list shows a part of the results.

Assay: Primary qHTS for Identification of Small Molecule Activators of Huntingtin-Antisense Promoter Activity; also: nearly all actives have a fitted effect of over 55% in size
Conditions: HEK293 HTT-AS promoter firefly luciferase reporter, 24 h; series mostly up to 57.5 µM; activity change, positive = activation: at the top concentration
Procedure, shortened: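 HEK293 luciferase promoter-reporter cells (2,500/well) plated 24 h, then compounds added at up to 57.5 uM final for 24 h at 37 °C. Firefly luminescence by Dual-Glo, normalized to vehicle (0%) and zero RLU (-100%).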

Activity change, positive = activation, inactive:
O=C(O)C1=CC(O)C(O)[C@H](O)C1 (some centres undefined) -10.2%
CCOC(=O)CC(=O)CSc1nc2ccccc2c(=O)n1CCc1ccccc1 -4.95%
COc1cccc(CNC(=O)CN(c2ccc(C(C)C)cc2)S(=O)(=O)c2c(C)n[nH]c2C)c1 -21.3%
Cn1c(=O)c(=O)n(C)c2cc(N3CCCC3)c(NC(=O)c3ccc(C(C)(C)C)cc3)cc21 -16.3%
Cn1cc(S(=O)(=O)N2CCCC2)cc1C(=O)Nc1ccc(C(F)(F)F)cc1 -38.3%
COc1ccccc1-c1nnc(C2CCN(S(=O)(=O)c3ccccc3)CC2)o1 9.33%
O=C(Nc1ccc(NC(=O)c2ccc(Br)cc2)c(Cl)c1)c1ccc(Br)cc1 -22.5%
COc1ccc(CNc2oc(COc3cccc(C)c3)nc2C#N)cc1 -8.59%
COc1ccc(C(=O)Nc2nc3ccc(S(=O)(=O)N4CCCC4)cc3s2)cc1 -10.2%
CCc1nn(CC(=O)N2CCN(c3cccc(C(F)(F)F)c3)CC2)c(=O)c2cc3occc3n12 -7.35%
COc1cccc2cc(-c3nnc(-c4ccc(Cl)cc4)o3)c(=O)oc12 -9.28%
CCCCCn1c(=O)[nH]c2cc(C(=O)Nc3ccc(OC)c(OC)c3)ccc2c1=O -9.8%
COc1cccc(N2CCN(C(=O)Cn3cnc4onc(-c5ccc(F)cc5)c4c3=O)CC2)c1 -37.7%
COc1cccc(-c2nc(CS(=O)(=O)CC(=O)NCCCN3CCN(C)CC3)c(C)o2)c1 4.9%
CC(C)CCOc1ccc(Oc2nc(N(C)C)nc(N(C)C)n2)nn1 -34.5%
COc1ccc2c(CNCc3cccs3)c(C(=O)O)n(Cc3ccc(F)cc3Cl)c2c1 -38.9%
COc1ccccc1-n1ncc2c(=O)[nH]c(SCC(=O)Nc3cccc(F)c3)nc21 -18.9%
CCOc1ccccc1N(C)C(=O)Cn1cnc2onc(-c3ccc(F)cc3)c2c1=O -6.06%
CCOc1ccc(C(=O)c2oc3ccccc3c2NC(=O)c2cc(-c3ccccc3)on2)cc1 -12.9%
Cc1ccc(NC(=O)C(Cc2ccccc2)n2cccc2)c(C)c1 (centres undefined) -27.4%
CCCCCn1c(=N)c(S(=O)(=O)c2ccccc2)cc2c(=O)n3cccc(C)c3nc21 -8.93%
Cc1cc(Nc2ccc(C(C)C)cc2)nc(-n2nc(C)cc2C)n1 -18.3%
CC(C)Oc1cccc(C(=O)Nc2ccc(-c3nc4cc(Cl)cc(Cl)c4o3)cc2)c1 -17.3%
Cc1cccc2sc(N(Cc3cccnc3)C(=O)Cc3ccccc3)nc12 -25%
Cc1ccc(NC(=O)CSc2nc(-c3cccs3)cc(C(F)(F)F)n2)cc1C -34.9%
COc1cc(-c2noc(-c3ccc(NC4CCCCC4)c([N+](=O)[O-])c3)n2)cc(OC)c1OC -6.82%
Cc1cccc(NC(=O)CSc2cn(CC(=O)N3CCOCC3)c3ccccc23)c1 4.26%
COc1ccc(S(=O)(=O)N(CCc2ccccc2)CC(=O)Nc2cc(C)ccc2C)cc1 -21.5%
CCc1ccc(NC(=O)C2CCN(S(=O)(=O)c3c(C)noc3/C=C/c3cccs3)CC2)cc1 -22.5%
CCn1cc(C(=O)NCCOC)c(=O)c2cc(S(=O)(=O)N3CCOCC3)ccc21 -6.21%
CCSc1nnc2c(n1)OC(c1ccc(OCC(=O)O)cc1)Nc1ccccc1-2 (centres undefined) 1.7%
O=C(CCC1N=C2c3ccccc3N=C(SCC(=O)Nc3ccccc3F)N2C1=O)NCc1cccs1 (centres undefined) -3.01%
CCOC(=O)C1=C(c2ccccc2)Nc2ncnn2C1c1ccc(Cl)cc1 (centres undefined) -16.2%
COc1ccc(CNC(=O)c2ccc3c(c2)NC(=O)C(CS(=O)(=O)Cc2ccccc2Cl)N3)cc1 (centres undefined) -22.3%
CCOc1ccccc1CNC(=O)CN1C(=O)CCn2nc(-c3cn(C)c4ccccc34)cc21 -17.7%
O=C(c1ccc2c(c1)N(Cc1cccc(Cl)c1)C(=O)c1ccccc1S2(=O)=O)N1CCC(Cc2ccccc2)CC1 -24.2%
COc1cc(Cl)c(C)cc1Nc1c2c(nc3ccccc13)CCC2 -43.1%
Cc1nc2ccc(S(=O)(=O)N(CC(=O)Nc3ccc(Cl)cc3)Cc3ccccc3)cc2s1 -29.7%
CCOC(=O)c1cccc(NS(=O)(=O)c2c(C)nc3sc(C)cn3c2=O)c1 -31.3%
CC(C)CCNC(=O)c1cccc(-n2cnc3cccnc32)c1 -21.5%
Cc1ccc(C)c(N2CCN(S(=O)(=O)c3ccc4c(c3)CC(=O)N4C)CC2)c1 -2.45%
Cc1ccc(C(=O)COC(=O)c2cccc(NC(=O)c3ccc(Br)cc3)c2)cc1 -41.4%
COc1cccc(CNC(=O)Cn2c(SCC(=O)Nc3ccc(F)cc3)nc3ccccc32)c1 -27.4%
Cc1ccc2c(c1)-c1c(c(C(=O)NCCc3ccccc3)nn1C)CS2 -14.5%
Cc1cccc(CS(=O)(=O)Cc2ccc(C(=O)NC(C)c3ccccc3)o2)c1 (centres undefined) -11.9%
CCCN(C(=O)Cc1c(C(=O)O)[nH]c2ccc(Cl)cc12)c1ccc(OCC)cc1 -6.86%
CCOCCCNC(=O)c1[nH]c2cc(OC)ccc2c1Sc1ccccc1 -3.17%
COc1ccc(CCC(=O)NCc2nc3cccnc3n2Cc2ccc(C)cc2)cc1 -17.6%
Cc1ccc(S(=O)(=O)NCC(c2ccco2)N2CCN(c3ccccc3F)CC2)cc1 (centres undefined) -25.9%
COc1ccccc1C(=O)Nc1ccccc1SCc1cc(=O)c2ccccc2[nH]1 -2.13%
CCN(CC)C(=O)Cn1c(=O)n(CCCCCC(=O)NCc2ccccc2)c(=O)c2sccc21 1.95%
O=C(c1ccc2c(c1)N(Cc1ccccc1F)C(=O)c1ccccc1S2=O)N1CCCCC1 (centres undefined) -22.2%
c1cc(CN2CCCCC2)cc(OCCCNc2nc3ccccc3s2)c1 -4.26%
O=C(NC1CC(=O)N(c2ccc(F)cc2)C1)C1CCCCC1 (centres undefined) -11%
CCOc1cc(/C=C(\C#N)C(=O)Nc2ccccc2C)ccc1OCc1cc(=O)n2nc(CC)sc2n1 -0.124%
CCOc1ccc(-c2csc(-c3nc(-c4ccc(Br)s4)cs3)n2)cc1 -2.39%
Cc1ccc(NC(=O)C2CCN(c3nnc(-n4cccc4)s3)CC2)cc1Cl -21.8%
Cc1nnc(SCC(=O)NCc2ccc(N(C)C)cc2)c2nn(-c3ccccc3)c(C)c12 -31.7%
CNCC(O)c1ccc(O)c(O)c1 (centres undefined) -6.55%
COc1cccc(C(c2c(O)cc(C)n(Cc3ccco3)c2=O)N2CCC(C)CC2)c1 (centres undefined) 2.28%
COc1ccc(OC)c2sc(N(Cc3cccnc3)C(=O)c3ccc(C(C)=O)cc3)nc12 -33.6%
COc1ccc(-c2nc(C)c(CCNC(=O)c3cc(OC)c(OC)c(OC)c3)s2)cc1OC 6.84%
CC(NC(=O)C(=O)Nc1c2c(nn1-c1ccccc1)CSC2)c1ccccc1 (centres undefined) -23.6%
Cc1ccc2c(c1)c(=O)c(C(=O)c1ccncc1)cn2CC(=O)Nc1ccc(C(C)C)cc1 -14.5%
Cc1ccc(N2CC(NC(=O)c3ccc(Br)o3)CC2=O)cc1C (centres undefined) -14.1%
COc1cccc(NC(=O)Cn2nc3c4ccccc4n(Cc4cccc(F)c4)cc-3c2=O)c1 -39.1%
Cc1nn(CCC(=O)NCc2ccc(N(C)C)cc2)c(=O)c2nn(-c3ccccc3)c(C)c12 -17.2%
Cc1nnc(N2CCN(c3ccccc3F)CC2)c2c1nnn2Cc1ccccc1Cl 11%
CC(C)(C)c1ccc(C(=O)Nc2ccc(-c3nc4cc(Cl)ccc4o3)cc2)cc1 -20.4%
CCOc1ccc(NCc2cccn2-c2nnc(N3CCC(C(=O)NCc4ccc(C)cc4)CC3)s2)cc1 -52.2%
Cc1c(-c2ccc(O)cc2)n(Cc2ccc(OCCN3CCCCCC3)cc2)c2ccc(O)cc12
CCc1nnc(NC(=O)CSc2nccn2Cc2ccc(F)cc2)s1 -11.1%
COc1ccc2nc3oc(C(=O)N(C)c4ccc(Cl)cc4)cc3cc2c1 -5.59%
COc1ccc(N2CCN(CC(O)COc3ccc(C(C)C)c(C)c3)CC2)cc1 (centres undefined) 14.3% [at 11.5 µM, percent change from vehicle, -100% = no light]
COC(=O)c1c(NC(=O)c2nc(SCc3ccc(C)cc3)ncc2Cl)sc2c1CCCC2 10.4%
CCCCCNS(=O)(=O)c1ccc(N2CCCCS2(=O)=O)cc1 -21.9%
CCCN1C(=O)CN(C2CCCCC2)C(=O)C1c1ccc(OC)c(OC)c1 (centres undefined) -8.05%
COc1ccc(NC(=O)Cn2c(=O)n(CCC(=O)NCCc3ccc(OC)c(OC)c3)c(=O)c3ccccc32)cc1Cl -9.11%
O=C(NC1CC1)c1ccc(Cn2c(SCc3ccccc3F)nc3cccnc32)cc1 16.5%
COc1cccc([C@@H]2Nc3ccc(C(=O)O)cc3[C@@H]3C=CC[C@@H]32)c1OC -15.9%
Cc1ccc2c(=O)cc(C(=O)Nc3ccc(S(=O)(=O)Nc4onc(C)c4C)cc3)oc2c1 -5.21%
Cc1cccc(-n2ncc(C(=O)N3CCN(C(=O)c4ccco4)CC3)c2C2CCN(C(=O)OC(C)(C)C)CC2)c1 8.05%
CCSC1=NC2(CCN(C(=O)NC3CCCCC3)CC2)N=C1c1ccc(C)c(C)c1 -15.9%
CC(C=CC1=C(C)CCCC1(C)C)=CC=CC(C)=CC(=O)O
Cc1noc(C)c1S(=O)(=O)NCCc1csc2nc(-c3ccc(F)cc3)nn12 -29.5%
Cc1ccc(NC(=O)[C@H](Cc2ccccc2)N2Cc3ccccc3C2=O)cc1 -12.4%
CCOC(=O)c1c(NC(=O)c2cc3ccccc3c(=O)o2)sc2c1CCCC2 -10.6%
COc1ccc(OC)c(NC(=O)CCc2c(C)nc3c(-c4ccccc4)c(C)nn3c2C)c1 -29.1%
CCCN(CCC)CCNC(=O)c1cc(Sc2ccc(Cl)cc2)nc2ccccc12 -8.4%
Cc1cccc(CSCCNC(=O)CN(c2ccccc2)S(=O)(=O)N(C)C)c1 -15.1%
Cc1ccc(S(=O)(=O)c2cn(CC(=O)Nc3ccc4c(c3)OCO4)c3ccc(F)cc3c2=O)cc1 -5.18%
CC(=O)Nc1ccccc1-c1nc2ccccc2n(C(C)C(=O)c2ccc(C)c(C)c2)c1=O (centres undefined) -18.4%
CCOc1ccc(CC(=O)NC2CC(=O)N(c3ccc4c(c3)OCCO4)C2)cc1 (centres undefined) -12.6%
C=Cc1c(C)c2cc3nc(cc4[nH]c(cc5nc(cc1[nH]2)C(C)=C5CCC(=O)O)c(CCC(=O)OC)c4C)[C@@]1(C)C3=CC=C(C(=O)OC)[C@H]1C(=O)OC -35.4%
